Data from ChEMBL document CHEMBL4888484, “Replenishing the malaria drug discovery pipeline: Screening and hit evaluation of the MMV Hit Generation Library 1 (HGL1) against asexual blood stage Plasmodium falciparum ,using a nano luciferase reporter read-out” (2022).
Out of some 4,800 compounds screened, about 410 (8.5%) showed an effect of 50% or more. The list shows a part of the results.

System: Plasmodium falciparum
Assay: Confirmatory screen in NF54 pLDH assay, in single point, at 2uM, 72h
Assay type: functional, Erythrocyte
Conditions: timepoint 72 hour

| SMILES | % Inhibition [%] |
| --- | --- |
| Cc1cccc(NC(=O)Cn2ccc(C(=O)Nc3cccc(C)c3C)n2)c1C | -11 |
| CC(C)OC(=O)N1C(=O)c2ccccc2NC1(C(F)(F)F)C(F)(F)F | -14 |
| CC(=O)C1(C(C)=O)[C@H](c2ccc(F)cc2)C1(C#N)C#N | -24 |
| COc1ccc(-n2ncc3c(NCCNC(=O)c4ccccc4Cl)nc(C)nc32)cc1 | -27 |
| CN1CCC(NCC[C@@H](Cc2ccccc2Cl)c2ccc(Cl)cc2)CC1 | 92 |
| O=C1NCCCc2nn(Cc3cc(F)ccc3Br)cc21 | -19 |
| Nc1c(-c2nc3ccccc3[nH]2)c2nc3ccccc3nc2n1Cc1ccccc1F | 62 |
| CCCCCC(=O)Nc1ccccc1Cl | 10 |
| Cc1nn(C)c(C)c1S(=O)(=O)Nc1ncc(C(C)C)s1 | 10 |
| CC1(CCCCNC(=O)N2CC[C@H](S(C)(=O)=O)C2)OCCO1 | 6 |
| Cc1nccn1[C@H]1[C@@H]2OC[C@@H](O2)[C@@H](NCc2ccncc2Cl)[C@@H]1O | 5 |
| O=C(c1cccc(O)c1)N1CCC(OCc2ccccc2F)CC1 | 8 |
| Cc1cc(NC(=O)c2cccc(S(=O)(=O)NC3CC3)c2)no1 | -23 |
| O=C(Nc1ncn(C[C@@H](COC(=O)c2ccc(F)cc2)OC(=O)c2ccc(F)cc2)c2ncnc1-2)c1ccc(F)cc1 | -10 |
| CCCOC(=O)c1cc(NC(=O)c2ccc3ccccc3c2)ccc1N1CCOCC1 | -11 |
| CCN(c1ccc(C(=O)Nc2cnc3[nH]nc(C)c3c2)cn1)C(C)C | 14 |
| O=C(c1ccccc1F)N(Cc1nccn1Cc1ccccc1F)CC1CC1 | -7 |
| Cc1ccc(C(=O)Nc2ccc(N3CCN(c4c(F)c(F)c(F)c(F)c4F)CC3)cc2)c(Cl)c1 | 8 |
| CC1(C)Oc2ccc(NC(=O)COc3ccccc3)cc2NC1=O | 12 |
| O=C(Cn1cnc2ccc(Cl)cc2c1=O)NCc1ccc2c(c1)OCO2 | -5 |
| CC(C)(C)[C@H](Cn1cccn1)NC(=O)Cn1nc(C(F)F)c2c1CCC2 | -5 |
| CN(c1ccc2nnnn2n1)C1CCCCC1 | 7 |
| Cn1ccnc(NC(=O)N(Cc2c(F)cccc2F)C2CC2)c1=O | -12 |
| COc1cncc(C(=O)N2CCCc3cc(S(C)(=O)=O)ccc32)n1 | 10 |
| Cc1n[nH]cc1Nc1ccnc(C(C)(C)C)n1 | 7 |

| SMILES | % Inhibition [%] |
| --- | --- |
| C[C@H](Oc1ccccc1Cl)/C(N)=N\O | 6 |
| Cc1ccc(-c2cn3c4ccccc4nc3n2CCN2CCN(C)CC2)cc1 | 4 |
| N=C(Cc1ccccc1)NOC(=O)c1cccc2ccccc12 | -7 |
| CCOC(=O)[C@@H](N1CCCC1=O)n1c(=O)[nH]cc(C)c1=O | -15 |
| O=C(c1cncnc1)N1C[C@H]2CCCC(=O)N(Cc3ccccc3)[C@H]2C1 | 7 |
| Cc1ccc(Cl)c(OCn2ccc(C(=O)Nc3ccc(Br)cn3)n2)c1 | -22 |
| Cc1cc(N2CC(OCc3ccccc3)C2)nc(Nc2cccc(O)c2)n1 | 96 |
| Cc1cnc(N2CCCC2C2CCCO2)s1 (stereo not given) | -18 |
| COc1ccccc1[C@@H]1C=C(c2cccnc2)Nc2ncnn21 | -13 |
| O=C(O)c1cc(N2CCC(Cc3ccccc3)CC2)ccc1NC(=O)C1CCC1 | -7 |
| Cc1ccc(Cl)c(OC(C)C(=O)N2C3CCC2CC(O)(Cc2ccc(F)cc2F)C3)c1 (stereo not given) | 11 |
| C[C@H]1[C@@H]2[C@@H](O)C([C@H](C)C(=O)NC3CCCC3)CC[C@@]2(C)CC[C@@H]1NC(=O)c1ccc(C#N)cc1 (stereo not given in full) | -10 |
| Cn1cc(NC(=O)Nc2cccc(OCC(F)F)n2)cn1 | -7 |
| CN(C)c1ccc(NC(=O)C(C2CC=CCC2)N(Cc2nc(-c3ccccc3)cs2)C(=O)Cn2nnc3ccccc32)cc1 (stereo not given) | 1 |
| Cc1nn(-c2ccccc2)c(C)c1C(=O)Nc1cccc(N2CCCC2=O)c1 | -8 |
| CNC(=O)Nc1cc(C)cc2c(-c3ccccc3)c(C(=O)NCc3cccc(F)c3)[nH]c12 | 7 |
| CCC(C)(CC)[C@@](O)(C#CC[N+]1(Cc2ccccc2Cl)CCCCC1)c1ccccc1 | 10 |
| Cn1ncc2c(NCCO)nc(N3CCCCCC3)nc21 | 12 |
| Cc1cc(N2CCC3(CCCN3Cc3cc(C#N)n(C)c3C)CC2)c2ccccc2n1 | 15 |
| CC(C)(C)CCN1CCN(S(=O)(=O)C[C@H]2CCCS(=O)(=O)C2)CC1 | 6 |
| CC(C)NC(=O)c1ccc(CN2C(=O)COc3ccc(C(=O)COc4ccc(F)c(F)c4)cc32)o1 | 1 |
| CN(C)CCOC(=O)CC[C@H]1CCOC(C)(C)C1 | 4 |
| O=C(O)COc1ccccc1[C@H]1CC(O)=Nc2cccc3c2c1cn3Cc1cccc(F)c1 | 8 |
| Fc1ccc(OCc2nccc(-c3ccc4c(c3)OCO4)n2)cc1 | 13 |
| O=C(N[C@@H](Cc1ccccc1)C(=O)OCc1cnc(-c2ccccc2)o1)c1ccccc1 | 13 |

| SMILES | % Inhibition [%] |
| --- | --- |
| O=S1(=O)CCN(C2CCN(Cc3c(F)cccc3F)CC2)CC1 | 14 |
| COCCCn1c(=O)c2ccccc2n(CC(=O)N(C)c2ccccc2)c1=O | -25 |
| Cc1cc(C)c(NC(=O)c2nnn(CC(=O)NCc3ccc(F)cc3)c2C)c(C)c1 | -10 |
| Cn1nccc1CCNS(=O)(=O)c1c[nH]c2cccc(F)c12 | 10 |
| Cc1ccc(-c2csc(NC(=O)c3cccc(C(=O)Nc4nc(-c5ccc(C)cc5C)cs4)n3)n2)c(C)c1 | -7 |
| CC1CCC(c2noc([C@H]3CCO[C@@H]3c3cncc(Br)c3)n2)CC1 (stereo not given in full) | 59 |
| COc1cc(NC(=O)N[C@@H](C)C(=O)N2CCc3ccccc32)cc(OC)c1 | 11 |
| COc1cccc(C2C(NC(=O)c3ccoc3)CCN2C2CC2)c1 (stereo not given) | -16 |
| Cc1ccccc1[C@H](CC(=O)O)NC(=O)C(F)(F)F | 16 |
| S=c1cc(-c2ccccc2)n(Cc2ccco2)c2c1CCCC2 | 43 |
| OCCCN1c2ccccc2Nc2nnc(-c3ccccc3)cc21 | 3 |
| Cc1ccc(-c2nc(CNC(=O)C[C@H]3CNCCO3)[nH]c2-c2ccccn2)cc1 | 23 |
| FC(F)(F)c1cc(Oc2cc(Oc3ccc(Cl)c(C(F)(F)F)c3)nc(Oc3ccc(Cl)c(C(F)(F)F)c3)n2)ccc1Cl | 2 |
| COc1ccc(C(=O)N2CC[C@H](CC(=O)N3CCOCC3)C2)cc1 | 1 |
| Cc1ccc(-c2noc(CCC(=O)NC[C@H]3CCCO3)n2)c(=O)n1C(C)C | 0 |
| C[C@@]12CCCCN1CCCc1c2[nH]c2ccccc12 | -19 |
| CC(C)COCn1cc(Br)c(=O)[nH]c1=O | -1 |
| CCC(C#N)(CC)c1nc(-c2cc(N)nc3ccccc23)no1 | 8 |
| O=C1C2CC=CCC2C(=O)N1CNc1ccc(Cl)cc1 (stereo not given) | -9 |
| O=C(c1ccc(Cl)cc1)c1c[nH]c2c(F)cc(F)cc2c1=O | 8 |
| COc1cccc(NC(=O)C2=Cc3cc(Cl)cc(OC)c3OC=C2)c1 | -2 |
| Cc1nc2ccc(N(C)S(=O)(=O)c3cc(C(=O)O)cs3)cc2s1 | 12 |
| COc1ccc(CNC(=O)Cn2c(=O)n(CCc3cccs3)c(=O)c3ccccc32)cc1 | 15 |
| COc1cc(C)c2[nH]c3c(c(=O)c2c1)CN(CC(=O)Nc1ccc(C)c(F)c1)CC3 | 8 |
| CCCCOc1ncccc1CNC(=O)N1CCn2nc(C)nc2C1 | -1 |

| SMILES | % Inhibition [%] |
| --- | --- |
| Cc1nsc(N2CCN(CC(C)O)C(C)C2)n1 (stereo not given) | 1 |
| Cc1ncsc1CNc1nnc(CC(C)(C)C)o1 | 3 |
| CCOC(=O)C(NC(=O)Cc1c(Cl)cccc1Cl)C(=O)OCC | 5 |
| CC1CCN(c2nccnc2Oc2ccc(C(=O)NCc3ccccc3Cl)cc2)CC1 | 48 |
| COc1cccc2c(=O)c3c([nH]c12)CCN(CC(=O)NCc1ccccc1Cl)C3 | 37 |
| CCOC(=O)c1cc(NC(=O)NCCS(C)(=O)=O)c(F)cc1C | -5 |
| CCn1cc2c(n1)c(=O)n(Cc1ccc(C)cc1)c(=O)n2CC(=O)Nc1ccc(C)cc1C | -21 |
| COc1cc(C)c2[nH]c3c(c(=O)c2c1)CN(CC(=O)Nc1ccc2c(c1)OCCO2)CC3 | 13 |
| COc1ccc(S(=O)(=O)N(C2CCCCC2)C2CCCCC2)cc1 | -11 |
| CC1CCCCC1NC(=O)CN1CCN(Cc2cccc(Cl)c2)C1=O (stereo not given) | -4 |
| CC(C)c1cccc(Nc2nc3ccncc3n(C(C)C)c2=O)c1 | 94 |
| CC1CCN(C[C@H]2CCCCCN2C(=O)NCCc2ccccc2)CC1 | 40 |
| Cc1cc(C)c(CNC(=O)c2c[nH]c3ncccc23)c(=O)[nH]1 | 4 |
| Cc1occc1C(=O)NC1(c2ccccc2)CCOCC1 | -6 |
| Cc1nccc(NC(=O)C2CCC(F)(F)CC2)c1Cl | 9 |
| COc1cc(CNCc2ccccn2)ccc1OCc1ccc(Cl)cc1Cl | 2 |
| Cc1ccc(S(=O)(=O)Cc2nc3cc(C)c(C)cc3[nH]c2=O)cc1 | 2 |
| COCCc1cc(NC(=O)Nc2sc(-c3ccccc3)nc2C)n(C)n1 | 16 |
| COc1cccc(CCC(=O)N2CCN3CCC2C3)c1F (stereo not given) | -21 |
| O=C1CCCN1CCc1nc(-c2cc(F)ccc2F)cs1 | 0 |
| O=C(CN1CCN(Cc2ccccc2F)C1=O)NC1CCCCCCC1 | -2 |
| Cc1nn(-c2ccccn2)c(O)c1C(c1ccccc1)c1c(C)nn(-c2ccccn2)c1O | 86 |
| Clc1ccc(-c2onc3c2CCCC3)cc1 | 9 |
| CC(C)(C)OC(=O)NCC1CCCCC1C(F)(F)F (stereo not given) | 1 |
| O=C(c1ccc(Cl)c(Cl)c1)N1CCCc2cc(S(=O)(=O)N3CCCC3)ccc21 | -5 |
